Where “and” joins values, the source holds several entries; their conditions need not be identical. Equal entries are not always repeated.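 All cell lines were grown in 96-well plates and treated with compound for 48 hours. At the GI50, growth is halved. TGI denotes the concentration required for complete inhibition of growth.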

This assay has as its system NCI-H322M lung. The experiment in a line: DTP human tumour cell line panel, 48 h.
As to `CC(C)(C)c1ccc(-c2nc3ccccc3c(=O)o2)cc1`, the TGI (as a rule, the concentration at which net growth stops) was > 100 µM.

On to `CC1(C)Cc2cccc(OCC(O)CN3CCN(c4ccc(F)cc4)CC3)c2O1` (configuration not stated), for which the GI50 (in general, the concentration that inhibits growth by half) is > 50 µM and the TGI is > 50 µM.

As for `COc1cc2c(c(N)c1OC)C(=O)/C(=C/c1cc(C)c(O)c(C)c1)C2`, the TGI is > 100 µM.

As for `CCCCC(NC(=O)CC)C(=O)O` (configuration not stated), the TGI was > 100 µM.

For the compound `Cc1c(/C=N/NC(=O)c2ccccc2)c(=O)n(-c2ccccc2)n1C`, the total growth inhibition concentration (TGI) was > 100 µM.

Turning to `COc1ccc(C(=O)/C=C2\c3ccccc3C(=O)N2C)cc1`, the TGI is > 100 µM.

As for `SC[C@@H]1COC[C@H](CS)S1`, the TGI is > 100 µM.

In the case of `CCc1ccc(CCC(=O)Nc2ncc(Cc3cc(Cl)ccc3Cl)s2)o1`, the GI50 is 2.58 µM and the TGI was > 50 µM.

For `CC(C)(C)[Si](C)(C)OCC1OC(n2cc(F)c(=O)[nH]c2=O)CC1O[Si](C)(C)C(C)(C)C` (configuration not stated), the TGI is 25 µM.

Regarding `Cc1nc2c(=O)[nH]c3ccccc3c2o1`, the TGI was > 100 µM.

On to `CC(=O)O[C@H]1C(=O)[C@@]2(C)[C@H]([C@H](OC(=O)c3ccccc3)[C@]3(O)C[C@H](OC(=O)[C@H](O)[C@@H](NC(=O)c4ccccc4)C4CCCCC4)C(C)=C1C3(C)C)[C@]1(OC(C)=O)CO[C@@H]1C[C@@H]2O`, for which the TGI is > 100 µM.

With `COc1ccc(-c2nc(N)c(C#N)c3c2CCSc2ccc(C)cc2-3)cc1OC`, the TGI is > 100 µM.

As to `COc1ccc(NC(=O)CC/C(CC(=O)c2ccccc2Cl)=N\Nc2nnc(C)n2N)cc1`, the TGI is > 100 µM.

`C[C@@H]1CCC2[C@@H](C)[C@H](O[C@H]3O[C@@H]4O[C@@]5(C)CCC6[C@H](C)CCC([C@H]3C)[C@]64OO5)O[C@@H]3O[C@@]4(C)CCC1[C@@]23OO4` (some centres not stated): the total growth inhibition concentration (TGI) stood at 24 µM.

As to `Nc1ccccc1/C=N\Nc1ccccc1`, the GI50 was > 100 µM and the TGI was > 100 µM.

`Cc1ccc(S(=O)(=O)NC(=O)C2(Br)S(=O)(=O)OCCOS2(=O)=O)cc1`: the TGI is > 100 µM.

For the compound `CNc1nnnn1C1OC(CO)C(O)C1O` (configuration not stated), the TGI is > 100 µM.

On to `CC1C(=O)C(C)C(c2cccs2)N(N=O)C1c1cccs1` (configuration not stated), for which the TGI was > 100 µM.

For `Cc1cc2c(cc1C)N1Cc3c(ccc(C)c3C)N(C2)C1` (tested in a mixture with another compound), the TGI is > 100 µM.

Regarding `Nc1ccn([C@H]2CO[C@@H](CO)O2)c(=O)n1`, the TGI is > 100 µM.

Take `O=C(CC1(O)C(=O)Nc2c(Cl)cccc21)c1ccccc1` (configuration not stated): the TGI is > 100 µM.

On to `O=C(CCCCC(=O)N/N=C\c1ccccc1Cl)N/N=C\c1ccccc1Cl`, for which the GI50 was 28.8 µM and the TGI is > 100 µM.

In the case of `COc1cc(COC(=O)N2CCCCC2C(=O)O)c([N+](=O)[O-])cc1OC` (configuration not stated), the TGI was > 100 µM.

On to `CCOC(=O)C1(Cc2ccccc2)Cc2cc3c(cc2C1=O)CCC3` (configuration not stated), for which the TGI is > 100 µM.

Consider `COC(=O)C1=C(C(=O)OC)SC(=C2c3ccsc3-c3sccc32)S1`, for which the TGI is > 100 µM.

For the compound `O=C(c1ccccc1)c1ccc(Cl)c([N+](=O)[O-])c1`, the GI50 is 13 µM and the TGI was 26.1 µM.

In the case of `Cn1c(=O)nc2n(CCO)ccnc-2c1=O`, the TGI was > 100 µM.

`O=C1OC(c2ccccc2)C2CC3CC4(CCC3CN12)OCCO4` (configuration not stated): the TGI is > 100 µM.

On to `CCOC(=O)N1CC2(C(=O)OC)C=CC1C(C(=O)OC)C2` (configuration not stated), for which the TGI was > 100 µM.

On to `O=C(N1CCOCC1)C1(c2ccccc2)CCNCC1`, for which the TGI is > 100 µM.

With `Nc1ncnc2c1c(-c1cccc(OCc3ccccc3)c1)cn2C1CC(CN2CCCC2)C1` (configuration not stated), the GI50 was 2.98 µM and the TGI was found to be 16.9 µM.

As to `CC1(C)CC[C@]2(C(=O)n3ccnc3)CC[C@]3(C)[C@H](C(=O)C=C4[C@@]5(C)C=C(C#N)C(=O)C(C)(C)[C@@H]5CC[C@]43C)[C@@H]2C1`, the GI50 is < 0.0177 µM and the TGI is 0.0625 µM.

As to `COc1ccc(OC)c(C2CCCc3c2cnc2nc(N)nc(N)c32)c1` (configuration not stated), the TGI was > 100 µM.

In the case of `CCCN(CCC)c1ccc(C=O)cc1`, the GI50 was > 100 µM and the TGI was > 100 µM.

For the compound `Fc1ccc(CNc2c3ccccc3nc3ccccc23)cc1`, the GI50 was 2.39 µM and the TGI was determined as 8.02 µM.

Consider `O=C1CSC(=S)N1c1ccc(F)cc1F`, for which the TGI was > 100 µM.

For `Cc1nc2c(O)cccc2c(=O)[nH]1`, the TGI is > 1000 µM.

Take `COc1ccc(N2C(=O)CSC2c2cc3cc(Br)ccc3nc2Cl)cc1` (configuration not stated): the TGI is > 50 µM.

In the case of `Cc1cccc2nc3n(c12)C(=O)c1ccccc1-3`, the TGI was > 100 µM.

With `CC1=C2C(=O)C3[C@@H](CCC4=CC(=O)CC[C@@]43C)C2CC[C@]12O[C@@H]1C[C@H](C)CN[C@H]1[C@H]2C` (some centres not stated), the TGI was > 100 µM.

Regarding `COc1ccc(/C=C/C(=O)c2nc3ccccc3[nH]2)cc1`, the TGI was > 77.2 µM.

On to `O=C(CCCCCCC(=O)N/N=C/c1ccc(N(c2ccccc2)c2ccccc2)cc1)NO`, for which the GI50 is 3 µM and the TGI stood at 12.4 µM.

`NC(=O)Cc1ncn(-c2ccccc2)n1`: the TGI was > 100 µM.

Take `N#Cc1ccc(/C=N\N2C(=O)c3ccccc3C2=O)cc1`: the TGI is > 100 µM.

The compound `CC(C)=CCC[C@](C)(O)[C@H]1CC[C@]2(C)[C@@H]1[C@H](O)C[C@@H]1[C@@]3(C)CC[C@H](O[C@@H]4O[C@H](CO)[C@@H](O)[C@H](O)[C@H]4O)C(C)(C)[C@@H]3CC[C@]12C` showed a TGI of 35.2 µM.

In the case of `Nc1ccc2cc(S(=O)(=O)O)cc(O)c2c1N=Nc1ccc(NC(=O)Nc2ccc(N=Nc3c(N)ccc4cc(S(=O)(=O)O)cc(O)c34)c(S(=O)(=O)O)c2)cc1S(=O)(=O)O`, the TGI is > 100 µM.

Turning to `CCOc1cc(C=O)c2c(ccc3ccc(OC)c(OC)c32)c1OC`, the TGI was > 100 µM.

Consider `COc1cc(C(=O)NC2CCN(C)CC2)ccc1Nc1ncc2c(n1)N(C1CCCC1)CC(F)(F)C(=O)N2C`, for which the GI50 is 0.0776 µM and the TGI worked out at 11.7 µM.

`Cn1c(=O)nc2n(-c3ccc(F)cc3)c3ccccc3nc-2c1=O` showed a TGI of 85 µM.

Regarding `CC1(C)CC(=O)C(C(c2cccc(O)c2O)C2C(=O)CC(C)(C)CC2=O)C(=O)C1`, the TGI was > 100 µM.

`C=CC1(c2ccc3ccccc3c2)OCC(CC)(CC)CO1` displayed a TGI of 68.6 µM.

As to `C[C@@H](C(=O)O)c1ccc(-c2ccccc2)c(F)c1`, the TGI was > 100 µM.

With `O=C(O)CN(CC(=O)O)Cc1cc2c(cc1O)Oc1cc(O)c(CN(CC(=O)O)CC(=O)O)cc1C21OC(=O)c2ccccc21`, the total growth inhibition concentration (TGI) was > 100 µM.

For the compound `Cn1c(=O)cc(NNc2ccc(Br)cc2)[nH]c1=O`, the TGI came to 9.75 µM.

For `O=C(CC(=O)N(C(=O)c1ccccc1)c1ccc(Cl)cc1)N/N=C\c1ccccc1O`, the TGI was > 100 µM.

For the compound `NC(=O)c1nnn(Cc2cc(Cl)c(C(=O)c3ccc(Cl)cc3)c(Cl)c2)c1N`, the GI50 is > 9.09 µM; the TGI is > 9.09 µM and 39 µM.

In the case of `O=c1oc2c3ccc4ccccc4c3n(CCN3CCOCC3)c2c2ccccc12`, the TGI is > 100 µM.

Turning to `CSC(=NC1CC(n2cc(C)c(=O)[nH]c2=O)OC1CO)NC#N` (configuration not stated), the concentration for total growth inhibition (TGI) is > 100 µM.

For the compound `CCN(CC)CCCC(C)NC(=O)c1cc(-c2nccn2C)nc2ccc(C)cc12` (configuration not stated), the TGI is > 100 µM.

Consider `COc1ccc(-c2nc(N(C)C)c3ccccc3n2)cc1`, for which the TGI came to 25.2 µM.

With `COc1cc(-c2cc(/C=C/C(=O)c3ccc4c(c3)OCO4)[nH]n2)cc(OC)c1OC`, the GI50 was 3.01 µM and the TGI amounted to 19.1 µM.

Turning to `O=c1n(CCCN2CCN(c3cccc(Cl)c3)CC2)nc2n1-c1ccc3ccccc3c1SC2`, the TGI was > 100 µM.

Regarding `NC(=O)NC(CC(=O)O)C(=O)O` (configuration not stated), the TGI is > 100 µM.

In the case of `OC(c1ccc(F)cc1)C(F)(F)c1nc(-c2ccccc2)no1` (configuration not stated), the total growth inhibition concentration (TGI) was found to be 99.2 µM.

For `COC(=O)CSc1ccccc1`, the TGI was > 100 µM.

For the compound `Cc1c2ccccc2c(CO)c2cc(F)c3ccccc3c12`, the TGI is > 100 µM.

As for `COc1ccc(-n2nnc3c(C#N)c(-c4ccccc4)c(C)n3c2=O)cc1`, the TGI was > 100 µM.

Take `O=C(N/N=C/c1coc2ccc(Cl)cc2c1=O)c1ccncc1`: the GI50 is 30.1 µM and the TGI stood at 95 µM.

Regarding `COC(=O)c1cc(C)n2c1CS[C@@H]2c1ccccc1`, the TGI was > 100 µM.

With `O=C(Nc1ccc(Cl)c(Cl)c1)C(=O)Nn1c(=S)[nH]c2ccccc2c1=O`, the TGI is > 100 µM.

Take `CCOc1ccc(C2=C(Cl)c3cc(OC)c(OC)cc3C2Cl)cc1` (configuration not stated): the TGI was > 100 µM.

As to `COc1ccc(S(=O)(=O)N2CCN(C(=O)OCc3ccccc3)CC2C(=O)NO)cc1` (configuration not stated), the GI50 was > 25 µM and the TGI was > 25 µM.

For `CS(=O)(=O)N1CCN(Cc2cc3nc(-c4cccc5[nH]ncc45)nc(N4CCOCC4)c3s2)CC1`, the GI50 was 0.895 µM and 0.267 µM; the TGI is > 100 µM.

Regarding `C[C@H](CCC(=O)O[C@@H]1CC[C@@]2(C)C(CC[C@H]3[C@@H]4CC[C@H]([C@H](C)CCc5nc6ccccc6[nH]5)[C@@]4(C)CC[C@@H]32)C1)[C@H]1CC[C@H]2[C@@H]3CCC4C[C@H](O)CC[C@]4(C)[C@H]3CC[C@]12C` (some centres not stated), the TGI is > 100 µM.

`CCCCCCc1cc2cc(C(=O)Nc3ccccc3F)c(=N)oc2cc1O`: the TGI was found to be 42.5 µM.

In the case of `COCC1C(=O)c2cc3c(cc2C12C=CC1(C=C2)OCCO1)OCO3` (configuration not stated), the TGI was found to be 28.2 µM.

On to `COc1c(OC(C)=O)c(OC(C)=O)cc2c1-c1ccc(OC)c(=O)cc1C(NC(C)=O)CC2` (configuration not stated), for which the TGI is > 27.3 µM.

In the case of `COc1cc(C2c3cc4c(cc3OC3(O)COC(=O)C23)OCO4)cc(OC)c1OC` (configuration not stated), the total growth inhibition concentration (TGI) is > 100 µM.

Regarding `Oc1ccc(-c2c3ccccc3c(-c3ccc(OCCBr)cc3)c3ccccc23)cc1`, the TGI was determined as 67.2 µM.

Compound `COc1ccc2nc3cc(Cl)ccc3c(NCCC(=O)OCC(O)C(O)C(O[C@H](C)C(=O)NC(C)C(=O)NC(CCC(N)=O)C(=O)OCc3ccccc3)C(C=O)NC(C)=O)c2c1` (some centres not stated) showed a TGI of 33.9 µM.

Regarding `CC1(C)CC(=O)C(CC(C(=O)C(=O)Nc2cc(C(F)(F)F)ccc2Cl)C(=O)c2ccco2)C(=O)C1` (configuration not stated), the TGI was > 100 µM.

Take `Nc1ncnc2c1ncn2[C@@H]1C[C@H]1CO`: the concentration for total growth inhibition (TGI) was > 100 µM.

`CN(C)C1(C(=O)O)CC1`: the TGI is > 100 µM.

As to `CN(C)c1ccccc1CC(c1c[nH]c2ccccc12)c1c[nH]c2ccccc12`, the TGI turned out to be 27.3 µM.

Take `COc1cc(C2c3cc4c(cc3[C@H](NC(=O)c3cccs3)C3COC(=O)[C@H]23)OCO4)cc(OC)c1OC` (some centres not stated): the TGI is > 100 µM.

As to `O=C(O)CNC(=O)c1ccccc1O`, the TGI was > 100 µM.

The values are drawn from PubChem BioAssay (NCI).
